Results taken from PubChem BioAssay (NCATS).
This list was built around the results that the source calls inconclusive (neither active nor inactive); the mix of calls is not that of the screen. No potency is given beside an inconclusive call; the fits are too rough. Active and inactive are the calls of the source. Calls follow the shape of the dose curve; as a rule, active = well fitted cell-killing curve with a large enough effect; inconclusive = small, poorly fitted or top-dose-only effect, or effect the other way; inactive = no such curve, though single readings can be large or run the other way.

Test: Viability qHTS for spleen associated tyrosine kinase inhibitor (SYKi) drug resistant MV4-11 cells (AID 1963824); also: nearly all actives have a fitted effect of over 35% in size
Conditions: SYKi-resistant MV4-11 viability, CellTiter-Glo, 72 h; series mostly up to 45 µM
Summary of the method: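 SYK-inhibitor-resistant MV4-11 AML cells were seeded at 500 per well onto compound and cultured 72 hours (37 °C, 5% CO2). CellTiter-Glo was then added, and after 10 min at room temperature, luminescence gave viability.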
Potency is read from the fitted curve at half-maximal effect; tags tell the direction and shape of the fitted curve.

Question: For CCOC(=O)N1CCC(Nc2ccc(Cl)cc2N)CC1, which Potency is on record?
Answer: inconclusive [cytotoxic, partial curve, poor fit]

Question: Which Potency does the source give for Cc1c(-c2ccc(-c3ccccc3F)cc2)nc2ccc(F)cc2c1C(=O)O here?
Answer: inconclusive [cytotoxic, full curve]

Question: With CN1CCN(c2ccc(Nc3ncc4cc(C#N)c(=O)n(C5CCCC5)c4n3)cc2)CC1 as the molecule, how does the Potency read?
Answer: active: 0.235 µM

Question: For CCOCOC[C@H](C[C@H](C)C(=O)NO)NC(=O)c1ccc(Oc2ccccc2)cc1, which Potency is on record?
Answer: inconclusive [cytotoxic, partial curve]

Question: For Cc1[nH]nc2ncc(C(=O)N3CCC[C@H]3c3ccc(Cl)cc3)cc12, which Potency is on record?
Answer: active: 2.95 µM

Question: For CCCCCC(=O)O[C@]1(C(C)=O)CC[C@H]2[C@@H]3CCC4=CC(=O)CC[C@]4(C)[C@H]3CC[C@@]21C, which Potency is on record?
Answer: inconclusive [cytotoxic, partial curve]

Question: With CN(Cc1ccccc1)C(=O)c1ccc(S(=O)(=O)Nc2ccccc2)cc1 as the molecule, how does the Potency read?
Answer: active: 14.8 µM

Question: Which Potency does the source give for CCOC(=O)C1=C(C)NC(C)=C(C(=O)OC)C1c1cccc([N+](=O)[O-])c1 (stereo unspecified) here?
Answer: inconclusive [cytotoxic, single point]

Question: Which Potency does the source give for CCCc1ccc(OCC(=O)N2CCN(C(=O)COc3ccc(CCC)cc3OC)CC2)c(OC)c1 here?
Answer: inactive

Question: With C[C@@H](c1ccc2nccn2c1)n1nnc2ncc(-c3cnn(C)c3)nc21 as the molecule, how does the Potency read?
Answer: inconclusive [cytotoxic, partial curve]

Question: Which Potency does the source give for Nc1c(NC/C=C\COc2cc(CN3CCCCC3)ccn2)c(=O)c1=O here?
Answer: inactive
